Experimental data: PubChem BioAssay AID493208 (National Center for Advancing Translational Sciences (NCATS), 2011)
Screen size: about 44,000 compounds; about 340 (0.77%) were called active. Roughly 5% stayed inconclusive and do not appear here. The call rests on the fitted dose curve; in most records, active means well fitted inhibition curve with a large enough effect; inconclusive means small, poorly fitted or top-dose-only effect; inactive means flat fitted curve, though single readings scatter. The list shows a part of the results.

Experiment: Acumen qHTS Assay for Inhibitors of the mTORC1 Signaling Pathway in MEF (Tsc2-/-, p53-/-) Cells: Sytravon;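 further: plate controls were DMSO for no effect and rapamycin for full effect; nearly all actives have a fitted effect of over 50% in size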
Settings: phospho-rpS6 immunofluorescence/PI, 24 h; series mostly up to 38.3 µM; activity change, negative = inhibition: at the top concentration
Summary of the method: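 Read-out: phospho-S6 Alexa-488 intensity over PI intensity per well, scored as % active cells using thresholds from rapamycin (7.5 nM) and DMSO controls. Tsc2-/-, p53-/- MEFs exposed to compound for 24 h; PI cell count recorded as viability.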

Activity change, negative = inhibition, inactive:
O=S(=O)(Nc1ccc(-c2ccc(N3CCCC3)nn2)cc1)c1ccc(C(F)(F)F)cc1 -25.9%
Cc1ccc(-n2ncc3c(N(C)C)ncnc32)cc1Cl -1.17%
CCC(Sc1nc(-c2ccccc2)[nH]c1S(=O)(=O)c1ccc(C)cc1)C(=O)O (stereo not drawn) -4.57%
Cc1cc(=O)n(Cc2ccc(F)cc2Cl)c2c1c(C)nn2C -15.5%
CC(C)c1ccc(-c2noc(SCC(=O)N3CCCCC3C)n2)cc1 (stereo not drawn) -2.77%
O=C(NCCCN1CCN(c2ccc(F)cc2)CC1)c1cc2c(Cl)nc3ccccc3c2s1 -2.68%
Cc1cccc(-c2nc(CCNC(=O)c3ccc(Br)o3)cs2)c1 1.42%
Cc1cc(C)cc(OC(=O)c2cc(-c3ccc(Cl)cc3)on2)c1 -7.35%
CCOc1ccc(NC(=O)c2c(NCc3cccnc3)sc3c2CCC(C)C3)cc1 (stereo not drawn) -16.5%
CC(=O)c1sc(NC(=O)c2c(-c3ccccc3)c(-c3ccccc3)nn(C)c2=O)nc1C -4.49%
CCN1CCN(C(=O)c2cnn(-c3ccc(F)cc3F)c2C2CCN(C(=O)OC(C)(C)C)CC2)CC1 -0.658%
CCN(CC)C(=O)Cn1c(=O)n(-c2ccc(C)c(C)c2)c(=O)c2c(C)c(C(=O)N(CC)CC)sc21 -0.467%
CCCCCN1C(C(=O)c2ccccc2)=C(NC(=O)c2ccc(C)cc2)c2ccccc2S1(=O)=O 3.95%
CC1CCc2onc(C(=O)N3CCN(c4ccc(F)cc4)CC3)c2C1 (stereo not drawn) -6.69%
CC1CCC(N2CC(=O)N(CCC3=CCCCC3)C(c3ccc(F)cc3)C2=O)CC1 (stereo not drawn) 10.5%
COc1ccc(OC)c(NC(=O)c2cnc(Nc3ccc(C)c(Cl)c3)c3ccccc23)c1 -13.2%
COc1cc(Cl)c(NC(=O)CCc2nc3cccnc3n2-c2ccccc2)c(OC)c1 4.08%
CC(=O)Nc1c(C)nn(-c2ccccc2)c1N1CCC(C(=O)NCc2cccc(Cl)c2)CC1 5.8%
CC1=C(C(=O)Nc2ccc(Cl)cc2)C(c2cccs2)n2nc(SCc3cccc(C)c3)nc2N1 (stereo not drawn) 4.32%
O=C(NCCc1nc2ccccc2n1Cc1c(F)cccc1Cl)c1ccco1 -2.6%
O=C(CSc1nc2cc3ccccc3cc2[nH]1)Nc1ccc(F)cc1 -3.55%
CC(C)(C)OC(=O)N1CCC(c2c(C(=O)N3CCN(c4ccccc4F)CC3)cnn2-c2ccccc2Cl)CC1 7.2%
Cc1ccc(NC(=O)c2cnc(SCC(=O)N3CCCc4ccccc43)n(C)c2=O)cc1 -2.39%
CCOc1ccc(NC(=O)CCNS(=O)(=O)c2ccc3c(c2)CCCC(=O)N3)cc1 2%
CC(=O)N1CCc2cc(S(=O)(=O)NC(CC(C)C)C(=O)NCc3ccccc3Cl)ccc21 (stereo not drawn) -0.461%
Cc1c(NC(=O)c2cc(-c3ccccc3O)on2)c(=O)n(-c2ccccc2)n1C 10.4%
CCOC(=O)CCC(=O)Nc1nnc2n1CCS2 1.31%
O=c1c(NCc2ccccc2Cl)nccn1-c1ccccc1 8.54%
Cc1ccc(C(=O)Nc2nnc(S(=O)(=O)N3CCCCCC3)s2)cc1 -0.631%
COc1ccc(CNC(=O)CCc2c(C)c3cc4c(C)c(C)oc4cc3oc2=O)cc1 1.84%
CCCCCOc1ccc(Cn2c(=O)oc3ccc(C)cc32)cc1OC -10.9%
CCC(=O)N1CCc2cc(Br)cc(S(=O)(=O)N3CCC(C(=O)Nc4ccccc4F)CC3)c21 -17%
Cc1cc(C)cc(C(=O)n2nc(C)c(S(=O)(=O)N3CCCCCC3)c2C)c1 -2.4%
O=C(Nc1ccc(Cl)cc1Cl)c1cc(S(=O)(=O)N2CCCCCC2)ccc1F 9.63%
O=C1CC(c2cc(F)cc(F)c2)c2cc3c(cc2N1)OCO3 (stereo not drawn) -23.4%
Cc1c(C(=O)N2CCN(c3ccc(F)cc3)CC2)sc2nc3n(c(=O)c12)CCC3 -8.69%
O=C(Cn1ccn(-c2ccc(F)cc2)c(=O)c1=O)Nc1ccccc1C(F)(F)F 3.84%
CCCCc1nn2c(=O)cc(COC(=O)c3ccccc3NC(=O)c3cccs3)nc2s1 3.41%
CCCOc1ccc(NC(=O)CC2C(=O)N(c3ccc(C)cc3)C(=O)N2CCc2ccncc2)cc1 (stereo not drawn) -10.4%
CC(C)Cn1c(C2CC(=O)N(c3ccccc3Cl)C2)nc2ccccc21 (stereo not drawn) -2.7%
Cc1cccc(NC(=O)Cn2nnc(C(=O)NCc3ccco3)c2N)c1 1.42%
Cc1oc(-c2ccc(C(=O)NCCN(C)C)cc2)nc1CS(=O)(=O)c1ccccc1 -5.28%
O=C(Cn1nc(-c2ccccc2)nc(Cc2ccccc2)c1=O)Nc1ccc(Cl)cc1 -3.28%
Cc1cccc(-n2c(N)cc(=O)nc2SCC(=O)Nc2ccc(F)cc2)c1C 1.51%
COc1ccc(Br)cc1C(=O)Nc1ccc(-c2nc3ncccc3o2)cc1C -0.45%
Cc1ccc(C(=O)NCC(=O)OCc2cc(=O)n3ccsc3n2)cc1 -11.3%
CCc1ccc(NC(=O)CSc2ccc3nc(-c4ccc(OC)cc4)cn3n2)cc1 3.58%
COC(=O)CSc1nc2sc3c(c2c(=O)n1-c1ccc(C)cc1)CC(C(C)C)OC3 (stereo not drawn) -4.42%
CCN(CC)S(=O)(=O)c1ccc2c(c1)N(CC(=O)Nc1ccc(OC)cc1)C(=O)CS2 -0.141%
Cc1ccccc1CNC(=O)c1oc2c(c1C)-c1nn(Cc3ccc(Cl)cc3)cc1CC2 3.12%
CCOc1ccc(NC(=O)C2CCCN(c3cnccn3)C2)cc1 (stereo not drawn) 4.6%
CCOc1ccc(Cl)cc1CNCCCSc1nnnn1C -0.349%
COC(=O)c1ccccc1NC(=O)c1cnn(-c2ccc(F)cc2)c1-n1cccc1 1.22%
Cc1ccc(CN(C(=O)COc2ccccc2[N+](=O)[O-])c2ccccn2)cc1 0.0128%
CCCN(CCC)CCNC(=O)CN1C(=O)COc2ccc(S(=O)(=O)N3CCOCC3)cc21 2.75%
Cc1cccc(OCC(=O)NCCc2nc3ccccc3[nH]2)c1C -1.18%
O=C(NCc1ccccc1Cl)C1CCN(C(=O)N2CCOc3ccccc32)CC1 13.9%
CCC(CC)C(=O)Nc1nnc(S(=O)(=O)N2CCc3ccccc32)s1 1.83%
CCOc1ccc(-n2nc(CO)c(C(=O)NCc3ccccn3)n2)cc1 4.2%
Cc1ccc(OCCCCn2cnc3ccccc32)cc1 -1.95%
CCN(CC)S(=O)(=O)c1ccc2c(c1)nc(CN(C)C(=O)Nc1ccc(F)cc1)n2C 0%
O=C(Nc1ccc(C(=O)N2CCCCC2)cc1)c1nsc2ccccc12 0.839%
COc1cc(Cl)c(C)cc1NC(=O)CCc1c(C)nc2c3cccnc3nn2c1C -16.1%
